In the supplement of paper PMC10126150 one finds switch fluorescence ratio data, which are given here for 120 sequences.

Sequences with one replicate were seen in a single cluster, so their values are uncertain.

In this data set the test system is ATP. Put plainly: switch fluorescence ratio, 500 uM ATP over buffer (Cy3 cluster intensity, sum of 5 cycles each) (fold (ratio)); higher = stronger signal-on switching upon ATP binding; sequences stand for … in TCGTCGGCAGCGTCAGATGTGTATAAGAGACAGTTTTTTTTTTTTTTTTTTTTTTTTT…TC. Conditions: aptamer strand: ATP DNA aptamer (quencher-CACCTGGGGGAGTATTGCGGAGGAAGG + anchor), 100 nM annealed; ATP concentration: 500 uM; one replicate. In outline:
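Cy3-labelled switching-strand clusters on a modified Illumina MiSeq flow-cell were annealed to 100 nM quencher-labelled ATP aptamer, imaged in selection buffer, then imaged after 15 min with 500 uM ATP at 22 °C. Five buffer/ATP cycles ran, with NaOH stripping and re-annealing between them. The fluorescence ratio is summed target-cycle over summed buffer-cycle Cy3 intensity per cluster, averaged per switch-domain sequence. Clusters outside 100-1000 RFU were excluded.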
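Note: ATP exposure 15 min at 22 °C before imaging.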

On to CGAGACTGTA, for which the switch fluorescence ratio is 1.04.

As for AGTCGCTCTG, the switch fluorescence ratio was 0.936.

Regarding TAATCGAGTA, the switch fluorescence ratio was determined as 1.03.

As for TGTTATTTTC, the switch fluorescence ratio came to 0.975.

In the case of AGTAACGATC, the switch fluorescence ratio was found to be 1.02.

In the case of GAGGAGTGGC, the switch fluorescence ratio stood at 1.08.

On to TTTGTCCTGT, for which the switch fluorescence ratio amounted to 1.01.

With GGTGATAAAC, the switch fluorescence ratio turned out to be 1.01.

AATACGTATT: the switch fluorescence ratio amounted to 0.996.

Take AAGAGCAGGA: the switch fluorescence ratio came to 0.995.

For the sequence TCTACGTT, the switch fluorescence ratio was found to be 1.04.

As for CTGCCTCTGC, the switch fluorescence ratio was determined as 1.79.

For the sequence TTAAGTTTGA, the switch fluorescence ratio amounted to 1.04.

As to CACCGGTGAC, the switch fluorescence ratio is 1.06.

As to TAAGATTGCG, the switch fluorescence ratio was found to be 1.01.

For the sequence TATGGTGGCT, the switch fluorescence ratio amounted to 0.965.

For the sequence AAGATAGGAT, the switch fluorescence ratio was found to be 1.01.

Consider GTCAGGACA, for which the switch fluorescence ratio turned out to be 1.02.

Regarding AGGGACAGTT, the switch fluorescence ratio was 1.02.

For the sequence TAGTGTTTTA, the switch fluorescence ratio was 0.98.

Take CACACATAGG: the switch fluorescence ratio is 1.08.

CCGTAATGAG: the switch fluorescence ratio is 2.16.

As for GCATGAGAGT, the switch fluorescence ratio amounted to 0.938.

For TTTTTGTTCA, the switch fluorescence ratio is 0.997.

For the sequence CAGTTGCTTG, the switch fluorescence ratio worked out at 0.996.

In the case of TAAATTGGGC, the switch fluorescence ratio was found to be 1.

In the case of CGACTGTAAT, the switch fluorescence ratio was 1.96.

As to TACTGG, the switch fluorescence ratio is 1.04.

For AAATCTGGT, the switch fluorescence ratio came out at 0.953.

For TAGGCGGGGC, the switch fluorescence ratio is 1.03.

In the case of TGTACTACTG, the switch fluorescence ratio came out at 0.99.

With CGTAGGGCGA, the switch fluorescence ratio is 1.03.

In the case of CACGTATATG, the switch fluorescence ratio came to 1.13.

Take ATTGTGGATT: the switch fluorescence ratio was found to be 1.04.

In the case of ATTGGAGTTT, the switch fluorescence ratio came to 0.984.

As to CTCGCTCGGG, the switch fluorescence ratio worked out at 1.25.

For the sequence GCTACTCTCA, the switch fluorescence ratio worked out at 1.17.

As for ACAACTGTTT, the switch fluorescence ratio came to 1.11.

In the case of TGGTATATAG, the switch fluorescence ratio worked out at 0.977.

As to GTTGAGGCAT, the switch fluorescence ratio was determined as 0.981.

For CCTAGGAACG, the switch fluorescence ratio was 0.991.

As for CATAGAGTTC, the switch fluorescence ratio stood at 0.948.

GAGCGGTGTG: the switch fluorescence ratio is 0.999.

Take AGTGGTTGG: the switch fluorescence ratio amounted to 1.03.

As to TGATCCAATC, the switch fluorescence ratio amounted to 1.

TTAAGGAAGG: the switch fluorescence ratio was determined as 0.996.

For GAACGGACCG, the switch fluorescence ratio is 0.993.

On to AAGGCACGGC, for which the switch fluorescence ratio was 1.03.

Turning to CACTTGAAGA, the switch fluorescence ratio was 1.02.

On to CATCATGCTC, for which the switch fluorescence ratio is 1.11.

As for ATGGTTAAGC, the switch fluorescence ratio was 1.06.

Consider CCGGTCCACC, for which the switch fluorescence ratio came to 1.05.

On to ACAGTAGACG, for which the switch fluorescence ratio came out at 0.983.

Take TTTTACAGA: the switch fluorescence ratio turned out to be 0.978.

As for AGGTGCGAGC, the switch fluorescence ratio was determined as 0.954.

In the case of ATATCTCTGT, the switch fluorescence ratio was 0.989.

As to TGAATTAGGC, the switch fluorescence ratio came out at 0.929.

AATCCGGTTA: the switch fluorescence ratio is 1.01.

Turning to TTTGGGAGCG, the switch fluorescence ratio stood at 1.02.

TAGTCCATGG: the switch fluorescence ratio stood at 0.96.

For the sequence AGGACGGGAA, the switch fluorescence ratio was 1.02.

With CGTGACATCG, the switch fluorescence ratio was determined as 0.895.

Consider TCGGTACTGT, for which the switch fluorescence ratio stood at 1.04.

On to ACCTTAAAGC, for which the switch fluorescence ratio amounted to 1.07.

For CCCACGCTT, the switch fluorescence ratio came out at 4.04.

For AGAGGTCTAT, the switch fluorescence ratio came out at 0.99.

In the case of AGGCAGTACC, the switch fluorescence ratio worked out at 1.11.

Take ATAAGTAAAA: the switch fluorescence ratio turned out to be 1.05.

Consider GGAGAGACGG, for which the switch fluorescence ratio was 0.929.

On to CCATGGAAAG, for which the switch fluorescence ratio came to 1.01.

Take AGGTTCGAC: the switch fluorescence ratio came to 0.998.

In the case of TATAAAAGCG, the switch fluorescence ratio worked out at 1.03.

On to ACGTAGGGTC, for which the switch fluorescence ratio was 1.1.

For the sequence TATATACTAC, the switch fluorescence ratio came out at 1.07.

Turning to ACGCGTGACG, the switch fluorescence ratio worked out at 1.06.

For CTATAATTGT, the switch fluorescence ratio came to 0.98.

For the sequence CATGAGAGAA, the switch fluorescence ratio is 0.986.

Take GTGTAGTTTG: the switch fluorescence ratio came out at 1.

With CTCAATAGAA, the switch fluorescence ratio turned out to be 1.03.

Take TGGACGGGTG: the switch fluorescence ratio is 1.03.

With AAGCTATGTA, the switch fluorescence ratio came out at 0.98.

On to ATTTTAGGT, for which the switch fluorescence ratio turned out to be 0.96.

For CGGCGTAGAC, the switch fluorescence ratio turned out to be 1.04.

As to TGGCTGATCG, the switch fluorescence ratio stood at 0.986.

As to GAGGCCGGTA, the switch fluorescence ratio was 1.02.

For the sequence TCGGTAGTAT, the switch fluorescence ratio turned out to be 0.979.

CCGTTTTACC: the switch fluorescence ratio was 1.45.

Turning to AGCAAACTGG, the switch fluorescence ratio stood at 1.14.

Consider ACTAAGAGGC, for which the switch fluorescence ratio stood at 1.01.

TCGATTATTA: the switch fluorescence ratio is 1.02.

On to AGCTTAAAGT, for which the switch fluorescence ratio was 0.993.

For the sequence AATCAACGT, the switch fluorescence ratio turned out to be 1.02.

For CCTTGCGTCA, the switch fluorescence ratio came to 1.13.

Turning to ACGGTAAAGT, the switch fluorescence ratio came out at 1.06.

For the sequence AAGTAAACAC, the switch fluorescence ratio was 1.04.

In the case of GATCTGGATT, the switch fluorescence ratio was 1.02.

For GGGGCTAAAT, the switch fluorescence ratio amounted to 1.02.

ATGGATGCGA: the switch fluorescence ratio was 0.98.

As to ATGTCAGTCC, the switch fluorescence ratio was 1.01.

As for AGGTTCGCGC, the switch fluorescence ratio came to 1.03.

With GCAAATTTTT, the switch fluorescence ratio came out at 0.999.

Take TGGTAGTGCG: the switch fluorescence ratio worked out at 0.988.

In the case of GCGGAGGTGC, the switch fluorescence ratio came to 0.984.

For the sequence GCACGTTAAC, the switch fluorescence ratio is 1.31.

Regarding AAGAAGATG, the switch fluorescence ratio is 1.13.

For the sequence TATCGCGGGG, the switch fluorescence ratio amounted to 0.964.

As for CGCATTTTCG, the switch fluorescence ratio is 1.11.

TAAGTCCTAG: the switch fluorescence ratio came out at 1.03.

Regarding GAAAGCCGCG, the switch fluorescence ratio was 1.03.

Turning to ATTTCACGGT, the switch fluorescence ratio was found to be 1.01.

Take GATCAATGTA: the switch fluorescence ratio was 0.968.

As to GAGGTCGGTT, the switch fluorescence ratio came out at 0.986.

Consider AACTTGCTCA, for which the switch fluorescence ratio worked out at 1.06.

As for ACGTTCCCTT, the switch fluorescence ratio stood at 1.04.

As for TAGCAAGGCA, the switch fluorescence ratio stood at 1.07.

As to GTGACCATCG, the switch fluorescence ratio was found to be 0.994.

On to GATGCGGGAA, for which the switch fluorescence ratio was 1.03.

With ATTATCTCTG, the switch fluorescence ratio is 0.965.

Take CAGGTGCAGC: the switch fluorescence ratio came to 1.05.

Consider ACGCCGGCAT, for which the switch fluorescence ratio stood at 1.11.
